The supplement of paper PMC8813932
Structures can show the parent of a compound that is named as a salt. ± gives the standard deviation of the averaged measurements. Some of the results follow. Repeats are few or missing, and single values can be far off.

Assays:
Assay in all cases: log2 surviving fraction relative to plate median (drug vs vehicle, or drug+dl922-947 vs dl922-947 alone); ovarian cancer lines: OVCAR4 is platinum-sensitive while Ov4Cis resists cisplatin and Ov4Carbo carboplatin; higher = more cell survival
Details in all cases: compound concentration: 10 uM, 192 h
OVCAR4 = tested on: OVCAR4
Ov4Carbo = tested on: Ov4Carbo
Ov4Cis = tested on: Ov4Cis
[1] = dl922-947 oncolytic adenovirus co-treatment: MOI 10
[2] = dl922-947 oncolytic adenovirus co-treatment: none

| SMILES | log2 surviving fraction (OVCAR4; [1]) | log2 surviving fraction (OVCAR4; [2]) | log2 surviving fraction (Ov4Carbo; [1]) | log2 surviving fraction (Ov4Carbo; [2]) | log2 surviving fraction (Ov4Cis; [1]) | log2 surviving fraction (Ov4Cis; [2]) |
| --- | --- | --- | --- | --- | --- | --- |
| OC(CNCC(O)C1CCc2cc(F)ccc2O1)C1CCc2cc(F)ccc2O1 (stereo not given) [Nebivolol (Bystolic)] | -2.5 ± 0.85 | -3.84 ± 2.5 | -3.4 | -4.38 | -6.76 | -7.88 |
| CN(C)[C@@H]1C(O)=C(C(N)=O)C(=O)[C@@]2(O)C(O)=C3C(=O)c4c(O)cccc4[C@@](C)(O)[C@H]3[C@H](O)[C@@H]12 [Oxytetracycline (Terramycin)] | -0.0781 ± 2.2 | 0.414 ± 0.81 | 0.512 | 0.45 | 0.207 | 0.0453 |
| CO[C@H]1/C=C/O[C@@]2(C)Oc3c(C)c(O)c4c(O)c(c(/C=N/N5CCN(C6CCCC6)CC5)c(O)c4c3C2=O)NC(=O)/C(C)=C\C=C\[C@H](C)[C@H](O)[C@@H](C)[C@@H](O)[C@@H](C)[C@H](OC(C)=O)[C@@H]1C [Rifapentine (Priftin)] | -0.691 ± 0.45 | -1.74 ± 0.46 | 0.845 | -1.36 | -0.0451 | -1.82 |
| C[C@]12CC[C@H]3[C@@H](CC[C@@]45O[C@@H]4C(O)=C(C#N)C[C@]35C)[C@@H]1CC[C@@H]2O [Trilostane] | 0.771 ± 0.74 | 0.0911 ± 0.17 | 0.404 | -0.632 | 0.18 | 0.0143 |
| O=C(O)c1cc(=O)c2c(OCC(O)COc3cccc4oc(C(=O)O)cc(=O)c34)cccc2o1 [Disodium Cromoglycate] | 0.396 ± 0.2 | 0.525 ± 1.3 | -0.585 | -0.652 | -0.592 | 1.02 |
| CCCCN(CCCC)CCCOC(=O)c1ccc(N)cc1 [Butacaine] | 0.312 ± 0.34 | 0.651 ± 0.38 | 0.832 | -0.128 | 0.235 | 0.427 |
| CC[N+]1(C)CCCC(OC(=O)C(O)(c2ccccc2)c2ccccc2)C1 (stereo not given) [Pipenzolate Bromide] | 0.209 ± 2 | -1.13 ± 0.86 | 0.391 | 1.16 | 0.0843 | -0.338 |
| CNCC(=O)c1ccc(O)c(O)c1 [Adrenalone HCl] | -0.484 ± 0.54 | -1.07 ± 0.27 | -0.0342 | 0.303 | -1.47 | -0.518 |
| CN(C)CCC(c1ccccc1)c1ccccn1 (stereo not given) [Pheniramine Maleate] | -1.21 ± 0.33 | -0.473 ± 0.54 | -0.674 | 0.0741 | -0.746 | -0.443 |
| NS(=O)(=O)c1cc(Cl)c(Cl)c(S(N)(=O)=O)c1 [Dichlorphenamide (Diclofenamide)] | 0.271 ± 0.16 | -0.0341 ± 0.46 | 1.4 | 0.198 | 0.0736 | -0.514 |
| CCN(CC)C(=S)SSC(=S)N(CC)CC [Disulfiram (Antabuse)] | -8 ± 0.33 | -8.32 ± 4 | -6.11 | -8.91 | -8.53 | -12.2 |
| Cc1c(C(=O)NN2CCCCC2)nn(-c2ccc(Cl)cc2Cl)c1-c1ccc(Cl)cc1 | -1.28 ± 0.29 | -3.22 ± 0.71 | -0.758 | -6.33 | -2.13 | -3.7 |
| O=C([O-])C(O)[C@H](O)[C@@H](O)[C@H](O)[C@H](O)CO.O=C([O-])C(O)[C@H](O)[C@@H](O)[C@H](O)[C@H](O)CO.[Ca+2] (stereo not given in full) [Calcium Gluceptate] | 0.327 ± 0.17 | 0.198 ± 1.2 | 0.997 | 0.0484 | 0.298 | 0.364 |
| C[C@@H](O[C@H]1OCCN(Cc2n[nH]c(=O)[nH]2)[C@H]1c1ccc(F)cc1)c1cc(C(F)(F)F)cc(C(F)(F)F)c1 [Aprepitant (MK-0869)] | -0.447 ± 0.26 | 0.696 ± 2.9 | -0.388 | -5.63 | -1.3 | -1.52 |
| CN(C)CCC(c1ccc(Br)cc1)c1ccccn1 (stereo not given) [Brompheniramine] | 0.349 ± 0.3 | -0.186 ± 0.58 | -0.556 | -0.774 | 0.585 | 0.828 |
